Experimental findings from the supplement of paper PMC10126150 are described below.

In the data set the test system is ATP. Nature of the data set: switch fluorescence ratio, 500 uM ATP over buffer (Cy3 cluster intensity, sum of 5 cycles each) (fold (ratio)); higher = stronger signal-on switching upon ATP binding; sequences stand for … in TCGTCGGCAGCGTCAGATGTGTATAAGAGACAGTTTTTTTTTTTTTTTTTTTTTTTTT…TC. The conditions noted are these: aptamer strand: ATP DNA aptamer (quencher-CACCTGGGGGAGTATTGCGGAGGAAGG + anchor), 100 nM annealed; ATP concentration: 500 uM; one replicate. The method in brief:
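Between each of five buffer/ATP cycles, the flow-cell was stripped with NaOH and re-annealed. Each cycle imaged Cy3-labelled switching-strand clusters, annealed to 100 nM quencher-labelled ATP aptamer on a modified Illumina MiSeq flow-cell, first in selection buffer and then after 15 min with 500 uM ATP at 22 °C. The fluorescence ratio is summed target-cycle over summed buffer-cycle Cy3 intensity per cluster, averaged per switch-domain sequence, with clusters outside 100-1000 RFU excluded.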

Sequences with one replicate were seen in a single cluster, so their values are uncertain.
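Note: ATP exposure 15 min at 22 °C before imaging.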

Regarding CTGGCTCGCA, the switch fluorescence ratio was 1.17.
The value for GTTCCAACG was 1.04; that for CATGCTAAGC was 0.984.
To CGTGTACTGT belongs 0.954; to TTTACTTGAC, 1.11; to AGTTCGGAGA, 1.03.
To TCAGGATCGG belongs 0.951.
Consider ATGAGCAGTC, for which the switch fluorescence ratio was 1.36.
For CGACTCTGCG, the switch fluorescence ratio was determined as 1.08.
The value for CAGGATGTGA was 0.988; that for CCGATAGTGG was 1.04.
To GCTGCAAGG belongs 1.04; to ATAGACGGTG, 0.959.
To TTCAACCGGC belongs 1.06.
Take CAACCTCTGG: the switch fluorescence ratio was found to be 1.02.
The value for TAAACAGCGA was 1.03.
On to TCGATAGTAT, for which the switch fluorescence ratio came out at 0.999.
To AGCGCCAACG belongs 0.979; to TTGTGGGAGC, 0.97.
On to AGGAAAGGTT, for which the switch fluorescence ratio came to 0.984.
The value for TGGAGTCGGT was 1.03; that for CGGTATGGGT was 0.995.
The value for TGCTAGAGAC was 1.06.
With CGAGGGCCGT, the switch fluorescence ratio is 1.03.
TTTTTCAGT: the switch fluorescence ratio worked out at 0.975.
The value for GTACGCAAAT was 1.48; that for AGCGATATTG was 1.05; that for ACCACGGTGC was 2.56.
Turning to GTTCATTTTG, the switch fluorescence ratio was found to be 1.04.
To CATAACCGGG belongs 0.999; to CATCGTTACC, 1.09; to CATCAATTTA, 1.02.
The value for TTAGAGTTAT was 0.988.
Regarding GAATTGAGAC, the switch fluorescence ratio turned out to be 1.01.
To CCGTAAATCA belongs 1.21; to GTGTCAGGTA, 0.998; to CATCTAAGG, 1.01.
The value for TATCAGGGAC was 1.02; that for TGTAGTCGTT was 0.992; that for TCTTGCTCAT was 0.997.
To CTTGGCAGCA belongs 1.02; to GTTTCATTTC, 0.989; to AAAGCCTCAT, 1.01.
As to GTATCGTGAG, the switch fluorescence ratio came out at 1.04.
The value for AACTTTGCTT was 0.984.
Regarding CCTGCGTGGC, the switch fluorescence ratio came to 2.94.
On to CATGGCCTA, for which the switch fluorescence ratio amounted to 0.994.
To AAGCGTTCGA belongs 1.04; to CATTTATACG, 1.01; to TCTTTGGTC, 0.969.
To GAAGAAAACG belongs 0.891.
To AAAATCGCA belongs 1.01; to CGCTATCAAA, 1.04.
In the case of TCGCGGAGAG, the switch fluorescence ratio was 1.02.
As to GTGAGGGCG, the switch fluorescence ratio is 0.995.
Consider TTTGGGCA, for which the switch fluorescence ratio was 0.994.
As to GCCCGAGGTT, the switch fluorescence ratio stood at 1.03.
Regarding AGAGGCCGAG, the switch fluorescence ratio stood at 1.
To GGTTTTTCCA belongs 0.999; to GCAAACGACG, 1.18.
CTGTGTTTTC: the switch fluorescence ratio was determined as 1.01.
With CAGGTTGCAG, the switch fluorescence ratio came to 1.01.
To GCTAATCTGT belongs 1.01.
The value for CAAAGATCTA was 0.983.
To GTACTAGGAC belongs 0.994; to GCCATTGG, 0.977.
For TAAAACTACG, the switch fluorescence ratio was 1.01.
